Data as given in publication PMC4336329 (PLoS ONE, 2015).
The campaign covered roughly 310,000 compounds. About 14,000 (4.5%) showed an effect of 50% or more. Effects have a minus sign here. This is one part of the list.

Each compound was assayed against human ether-à-go-go-related gene (hERG) potassium channel (human, UniProt Q12809) (assay: primary screen, population patch clamp on CHO cells stably expressing hERG).
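Further: peak tail current of the secondary pulse compared with the same well before compound.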

Chain of human ether-à-go-go-related gene (hERG) potassium channel (Q12809 whole entry, looked up): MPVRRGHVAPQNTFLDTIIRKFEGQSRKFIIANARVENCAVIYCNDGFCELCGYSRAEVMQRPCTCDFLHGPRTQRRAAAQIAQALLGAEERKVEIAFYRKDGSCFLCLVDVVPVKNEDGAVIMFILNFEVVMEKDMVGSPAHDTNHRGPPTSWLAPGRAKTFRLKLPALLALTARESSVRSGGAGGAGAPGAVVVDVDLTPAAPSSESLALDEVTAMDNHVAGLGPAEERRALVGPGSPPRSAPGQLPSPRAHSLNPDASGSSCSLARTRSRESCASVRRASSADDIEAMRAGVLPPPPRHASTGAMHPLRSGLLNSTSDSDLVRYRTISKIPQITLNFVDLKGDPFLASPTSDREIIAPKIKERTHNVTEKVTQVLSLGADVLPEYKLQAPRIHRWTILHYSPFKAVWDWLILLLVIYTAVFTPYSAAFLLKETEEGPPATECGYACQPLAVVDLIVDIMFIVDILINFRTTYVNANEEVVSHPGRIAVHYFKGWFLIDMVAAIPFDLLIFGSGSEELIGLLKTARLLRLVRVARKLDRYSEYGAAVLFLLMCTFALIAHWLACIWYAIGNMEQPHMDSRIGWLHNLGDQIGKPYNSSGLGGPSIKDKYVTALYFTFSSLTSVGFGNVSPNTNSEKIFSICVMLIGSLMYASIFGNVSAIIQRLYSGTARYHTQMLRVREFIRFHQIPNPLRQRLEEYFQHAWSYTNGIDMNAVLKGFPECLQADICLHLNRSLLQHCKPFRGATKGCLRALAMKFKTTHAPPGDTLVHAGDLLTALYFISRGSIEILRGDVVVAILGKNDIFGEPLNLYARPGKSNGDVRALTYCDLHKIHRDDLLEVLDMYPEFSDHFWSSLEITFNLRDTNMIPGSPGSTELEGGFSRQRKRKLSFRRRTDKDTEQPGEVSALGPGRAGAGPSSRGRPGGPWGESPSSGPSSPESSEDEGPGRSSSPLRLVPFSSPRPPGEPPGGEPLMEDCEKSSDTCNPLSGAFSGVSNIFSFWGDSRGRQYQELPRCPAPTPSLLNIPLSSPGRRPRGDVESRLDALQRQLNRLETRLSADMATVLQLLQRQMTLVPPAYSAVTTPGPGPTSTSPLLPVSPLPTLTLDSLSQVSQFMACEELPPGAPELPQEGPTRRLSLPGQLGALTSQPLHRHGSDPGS

In order of rising “hERG current change (%, negative = inhibition) at 10uM” value:
1. N=c1c(C(=O)NCc2ccc3c(c2)OCO3)cc2c(=O)n3ccccc3nc2n1CC1CCCO1 (centres unmarked)  -79.5%
2. CC(C)(C)NC(=O)[C@@H]1C[C@@H]2CCCC[C@@H]2CN1C[C@@H](O)[C@H](Cc1ccccc1)NC(=O)[C@H](CC(N)=O)NC(=O)c1ccc2ccccc2n1.CS(=O)(=O)O  -72.1%
3. COc1cc2c(cc1OC)C(C(=O)N1CCN(c3ccccc3)CC1)C(c1cccs1)N(C)C2=O (centres unmarked)  -68.1%
4. Cc1ccc(OCC(=O)N2CCC(Cc3ccccc3)CC2)c([N+](=O)[O-])n1  -67.7%
5. CCCNS(=O)(=O)c1ccc(OCC(=O)N2CCc3ccccc3C2)c(C)c1  -65.9%
6. O=c1cc(CN2CCN(Cc3ccccc3)CC2)c2ccc(O)c(O)c2o1  -65.8%
7. CCOc1ccc(CN(CCO)CCO)cc1[N+](=O)[O-].Cl  -62.9%
8. F[B-](F)(F)F.O=[N+]([O-])c1ccc2nc(-[n+]3c(-c4ccccc4)cc(-c4ccccc4)cc3-c3ccccc3)[nH]c2c1  -61.8%
9. CCC(C(=O)NC1CCCCC1)n1nc(C)c2c(C)n(-c3ccccc3)nc2c1=O (centres unmarked)  -43.8%
10. COc1ccc(C(=S)N2CCOCC2)cc1OC(=O)c1cccc([N+](=O)[O-])c1  -39.9%
11. Cc1c(C(=O)NNC(=O)c2csc(N3CCOCC3)n2)oc2ccccc12  -38.7%
12. Cn1cnc([N+](=O)[O-])c1Sc1ccc(C(C)(C)C)cc1  -37.2%
13. Cc1cccc(Nc2nc(NCc3ccco3)nc(N3CCOCC3)n2)c1  -31.2%
14. Cc1nc2ccccc2c2oc(C(=O)N3CCC(C)CC3)cc12  -30.5%
15. CC(Oc1ccc(F)cc1)C(=O)Nc1sc2c(c1C(=O)NCc1cccnc1)CCCC2 (centres unmarked)  -30.1%
16. Cc1cccc(N2CCN(C(=O)c3c(Cl)cnn3C)CC2)c1C  -26.6%
17. COc1cc2c(cc1OC)C1=C(C#N)CC/C(=N\S(=O)(=O)c3cccc(Cl)c3)N1CC2  -23.3%
18. Cc1cc(C)nc(Sc2ccc(/C=C(\C#N)C(N)=O)o2)n1  -17.6%
19. O=C(/C(=C(\[O-])c1ccccc1)[n+]1ccc2ccccc2c1)c1ccccc1  -17.2%
20. COc1ccc(NC(=O)CSc2nnc(CC(=O)Nc3ccc(F)cc3)n2C)cc1  -15.9%
21. COc1ccc(/C=C2\Sc3ccc(C(=O)NCc4cccnc4)cc3N(C)C2=O)cc1OC  -13.8%
22. COCCn1nnnc1CN(Cc1ccco1)Cc1cc2cc3c(cc2[nH]c1=O)OCO3  -10.1%
23. Cc1ccc(S(=O)(=O)c2c(N)n(Cc3ccco3)c3nc4ccccc4nc23)cc1C  -9.7%
24. CC(C)n1nnnc1SCC(=O)N1CCN(Cc2ccc3c(c2)OCCO3)CC1  -9.13%
25. CCc1nnc(NC(=O)c2sc3nc(C)cc(COC)c3c2N)s1  -7.43%
26. COc1ccc(-c2cc3ccccc3nc2N)cc1OC  -7.35%
27. C[C@@H]1CC[C@@]23COC(=O)C2=CCC[C@@H]3[C@@]1(C)CC/C(=C/CO)CO  -6.27%
28. O=C(C1COc2ccccc2O1)N1CCc2ccccc21 (centres unmarked)  -5.51%
29. COc1ccc(N(CC(=O)NCc2ccc3c(c2)OCO3)C(=O)CCC(=O)Nc2ccccn2)cc1  -4.44%
30. Cc1ccc(CN2CCNC(=O)C2CC(=O)N(C)C2CCCCC2)cc1 (centres unmarked)  -4.37%
31. CN(C)C(CNC(=O)CSc1nnc(-c2ccco2)o1)c1ccccc1 (centres unmarked)  -4.19%
32. CCn1c(SCC(=O)Nc2ccc(C(=O)OC)cc2)nc2cccnc21  -4.09%
33. COc1ccc2cnnc(SCC(=O)Nc3ccc(C(=O)O)cc3)c2c1OC  -3.39%
34. COC(=O)c1ccc(NC(=S)N2CCN(Cc3ccccc3OC)CC2)cc1  -3.25%
35. COc1ccccc1OCCCn1cc(C=O)c2ccccc21  -3.23%
36. CC(=O)N1CCOc2ccc(S(=O)(=O)NCCc3cccc(C)c3)cc21  -2.66%
37. COc1cc(/C=C2\SC(N)=NC2=O)ccc1OCC(=O)Nc1ccccc1C  -2.6%
38. Cc1cccc2cc(CN(Cc3cccs3)C(=S)NCC3CCCO3)c(=O)[nH]c12 (centres unmarked)  -2.34%
39. CCc1ccc(NC(=O)Cn2cccc2)cc1  -1.8%
40. O=C(Nc1ccccc1N1CCCCC1)c1ccco1  -1.72%
41. COC(=O)Cn1cc(C(=O)c2ccccc2F)c2ccccc21  -1.29%
42. Cc1cc(C)c(S(=O)(=O)N2CCCOC2CNC(=O)C(=O)NCCC2=CCCCC2)c(C)c1 (centres unmarked)  -0.914%
43. O=C(Nc1ccc(N2CCOCC2)c(S(=O)(=O)Nc2cc(Cl)ccc2Cl)c1)c1cccnc1  -0.224%
44. CCN1CCN(Cc2ccc(NC(=O)c3cc(NC(=O)c4cnnc5ccccc45)cc(OC)c3)cc2C(F)(F)F)CC1  -0.082%
45. NNC(=O)CSc1nc(-c2ccccc2)cn1-c1ccccc1  -0.037%
46. Cc1ccc(C)c(NC(=O)C2CCCN2C(=O)OC(C)(C)C)c1 (centres unmarked)  1.04%
47. COc1ccccc1NC(=O)N1CCc2[nH]c3ccc(Cl)cc3c2C1  1.59%
48. COc1ccc(OCC(=O)N2N=C(C(F)F)CC2(O)C(F)F)cc1 (centres unmarked)  1.83%
49. O=C(O)CCN1C(=O)c2ccc(NC(=O)COc3ccccc3)cc2C1=O  2.08%
50. Cc1ccc(NC(=O)C(C)OC(=O)Cc2c[nH]c3ccccc23)cc1 (centres unmarked)  2.1%
51. CCn1c(=O)n(CC)c2cc(S(=O)(=O)N3CCc4ccccc43)ccc21  2.28%
52. COc1ccc(NC(=O)c2ccc(-n3cccn3)nc2)cc1  3.8%
53. COc1ccc(OC)c(Nc2nc(NCc3ccco3)nc(N)c2[N+](=O)[O-])c1  4.54%
54. CNS(=O)(=O)c1cccc(C(=O)OCC(=O)Nc2ccc(Cl)cc2F)c1  4.71%
55. COc1ccc2cc3c(N)nn(C(=O)c4cccc([N+](=O)[O-])c4)c3nc2c1  5.49%
56. c1ccc(-c2ccc3sccc3n2)cc1  5.69%
57. COC(=O)c1cc(NC(=O)c2cccc(F)c2)cc(C(=O)OC)c1  5.98%
58. COc1ccc(N=C(c2ccccc2)c2c(C)[nH]n(-c3ccccc3)c2=O)c(OC)c1  5.99%
59. Cc1cc(C)c(S(=O)(=O)NC2CC2)c(C)c1  6.97%
60. O=c1[nH]c(=S)n(C2CC2)c(O)c1C=NCCc1ccccc1  7.26%
61. Cc1nc(-c2ccc([N+](=O)[O-])cc2)nc2[nH]ccc(=O)c12  7.67%
62. O=C(O)c1cncc(SCc2ccccc2)n1  8.07%
63. C=CCSc1nnc(N2C(=O)C(O)=C(C(=O)c3ccco3)C2c2ccccc2F)s1 (centres unmarked)  8.23%
64. FC(F)(F)C1=NC(C(F)(F)F)=NP(N2CCOCC2)(N2CCOCC2)=N1  9.42%
65. COc1cc2c(cc1/C=C1/NC(=O)N(CC(=O)Nc3ccccc3)C1=O)OCO2  9.51%
66. Cc1cccc(N2CCN(C(=O)c3ccccc3NC(=O)C3CC=CCC3C(=O)O)CC2)c1 (centres unmarked)  9.75%
67. Cc1noc(C)c1S(=O)(=O)N(CC(=O)NCc1ccc2c(c1)OCO2)c1ccc(C(C)C)cc1  9.81%
68. COc1ccc(C(=O)NC(=S)NCc2ccco2)cc1  10.5%
69. C/C=C/c1c(F)c(F)c(Oc2ccc(C(=O)O)cc2)c(F)c1F  10.9%
70. Cc1ccc(-c2nnn(CC(=O)NCCc3ccc4c(c3)OCO4)n2)cc1  11.6%
71. CCN(CC)S(=O)(=O)c1cc(OC)ccc1N=Nc1ccc(O)c2ncccc12  12.2%
72. CCCCn1c(N)c(N(CCOC)C(=O)COC(=O)COc2c(C)cccc2C)c(=O)[nH]c1=O  12.4%
73. Cc1[nH]nc(SCC(=O)N2CCCC2)c1[N+](=O)[O-]  13%
74. Cc1ccc(N2C(=O)NC(=O)/C(=C/C=C/c3ccco3)C2=O)cc1  14.6%
75. c1ccc(C2NCCc3[nH]cnc32)cc1 (centres unmarked)  15%
76. O=C(NC(=S)Nc1ccccc1Cl)c1ccco1  15.5%
77. COc1ccc2c(c1)cc(C(=O)N[C@@H](Cc1ccccc1)C(=O)N[C@@H](C)C(=O)O)n2C  15.5%
78. CNC(=O)/C(C#N)=c1\s/c(=C/C(=O)OC)c(=O)n1-c1ccccc1  15.8%
79. CC(C)c1nnc(NC(=O)c2ccc3c(c2)OCO3)s1  16%
80. COc1cc(NC(=O)Cc2ccccc2)nc(OC)n1  16.7%
81. COc1ccc(C2=NN(C(=S)Nc3ccccc3)C(c3ccccc3)C2)cc1 (centres unmarked)  18%
82. CC(NC(=O)C1CCC(CNS(=O)(=O)c2ccccc2)CC1)c1ccccc1 (centres unmarked)  22.7%
83. COc1cccc(NC(=O)c2sc(Cl)nc2C)c1  26.5%
